Measurements published in the RNAGym collection of RNA variant scans (doi:10.7554/elife.90254).
Read counts are not given, so values of variants with three or more changes are uncertain.

B1: OR4K15 (parent)
chain: GUUAACGGUCAUAGGCCAUGGAAACUAGGAGCACCAUUUCGCUGCCAGUGAAGAAAUGAACAAAGAAAAUCUGGGCCAGGCAGGCAUCAAAAGAAAUAGUCUUGCGCUCAACCAGAAAGUCUGUAAUCAUUUUAAGGGUA

Variants of: B1
Assay: self-cleavage, relative activity (ratio to wild type); higher = more cleavage; in vitro, sequencing; the parent is a self-cleaving ribozyme

| Variant | self-cleavage |
| --- | --- |
| U9C A30U A52G U131C | 1.22 |
| A60G A62G U102C | 1.96 |
| U57C A62U A69G A92G A111G | 0.07 |
| A11C A47G A91G | 1.09 |
| U38C U87A A91G U100C U102C A110G | 0.08 |
| U9C A11U A27G A95G | 1.82 |
| A33U A66G A82U | 0.49 |
| U43C A59G G74A A89G U127C | 0.06 |
| A5U U43C A52C | 0.7 |
| A22G A47G A68G A91G U103C A118G U131A | 0.03 |
| A52G U70A U120C | 0.34 |
| A78G C101A U103G U124C | 0.01 |
| G20A U49A A52U A114G | 0.12 |
| C42U A60U U124C | 1.32 |
| A64G A90G U108C U122C | 0.03 |
| A4G A24G A129G | 0.66 |
| U49C A118G U130C U139C | 0.19 |
| G15U U87C U127C | 0.55 |
| U26C A47G A89G | 0.54 |
| U12C A23G A24G U72C A140G | 0.37 |
| A55G U70C A89G U103C | 0.35 |
| A5G A30U A36U U38C A51G U57A A89C A94G A140G | 1.06 |
| U39A U49C A56G A96C | 0.81 |
| A22G A52G A60G G106A | 0 |

| Variant | self-cleavage |
| --- | --- |
| U49C A114U G123A | 0.12 |
| U2A A54G A82G | 0.73 |
| A18G A62G G80A A89U U127C A129G | 0.12 |
| U87C C107A A125G | 0 |
| A11G A23U A55G | 0.98 |
| A24C U70C U97A U122C | 0.33 |
| A13G A18U A117G U124C | 1.21 |
| U38C U43A A55G A78G A94U | 0.27 |
| A11G A47G A117G A126C | 0.63 |
| U37C U43A A82U G115U | 0.13 |
| U87C U124C U127C | 0.3 |
| A30G U38C A63U U97A A98C U100C A126U | 1.99 |
| A11G U57C A59G | 1.25 |
| A22G A68G A96G A114G U122A | 0.26 |
| A51G A54G C112A | 0.13 |
| C40U A64G A92G A135G | 1.66 |
| U19A A54G A116G | 0.56 |
| A24C A62G A92U | 2.13 |
| A11G U43C A82C | 0.13 |
| G58U A111G A118G | 0.03 |
| A24G C113U A117C A118G | 0 |
| C17U A27U A110U | 1.08 |
| U49C A91G U132C | 0.91 |
| U3C A68U U132C | 0.95 |

| Variant | self-cleavage |
| --- | --- |
| U57C A64U G106C | 0.01 |
| U37C A63G A95G | 1.33 |
| U43C A51G U130C | 1.31 |
| U38G U108C A114G | 0.01 |
| A59G A110G A118G | 0.13 |
| C10U A56G U108A U139G | 0.08 |
| A63G C105U U122C | 0.02 |
| G1A A62G A111G | 0.02 |
| U38C A68G A140G | 0.64 |
| A30G U38C U49C A126G | 0.66 |
| U9G A64G U102C U131C | 1.42 |
| C46A A67U A110G U124C | 0.09 |
| U12A U97A A135G | 1.63 |
| A30G A36G A47G | 1.99 |
| U3G A56G U108A | 0.07 |
| A24G A60G A95G | 1.5 |
| A51G A110G C112U C121A | 0.02 |
| A5C A22G A64G U127C | 0.82 |
| A33C A96G U122C | 0.22 |
| U12A U19C A96G | 1.45 |
| A64G G65A A117G A140G | 2.87 |
| A5G A52G A95G A96G | 0.64 |
| A13G A64G U70C A126G | 0.65 |
| U9A A22G U39C A59G | 1.79 |

| Variant | self-cleavage |
| --- | --- |
| U43A A94G A95G U102C U132C | 1.54 |
| U3A U57C U72A | 0.25 |
| U12C A90G U132C | 1.71 |
| A82G A86U C121U | 2.04 |
| C61U A114U A125U | 0.07 |
| U9C U37C A68G A118G | 1.14 |
| A68G A110G A129G | 0.11 |
| U38A A60G U102C | 2.19 |
| G58U U100C A111G | 0.01 |
| A22G A52C U120C | 0.4 |
| G8A U9C A59G U103C | 0.9 |
| G53A A90U U127A | 1 |
| A47U A91G U103C | 0.56 |
| C6U U57C A63G A134G | 1.27 |
| A23G A52G A111G | 0.05 |
| U9C A52G U87C A89G | 1.17 |
| G65A A116G U120C | 0.45 |
| U49A A91G C105U | 0.02 |
| U9A A11G A95G A134G | 0.89 |
| U3C C85G A94G U131G | 0.18 |
| U70C A82G U120C A125U | 0.08 |
| A18G A22U U43C U100A | 0.71 |
| U9C A11G A23G U37C A116C | 0.19 |
| C10U A56G A67G A69G A116G | 0.39 |

| Variant | self-cleavage |
| --- | --- |
| U9C A64G A92G | 1.25 |
| A5U A59G A82U | 0.65 |
| A5G A78G U100C | 0.85 |
| A5G C10U U100C U108C U124C | 0 |
| U43C A78U A82U A118G | 0.02 |
| A11U U39A A52U A60G U103C C105U U108C U120A U131C | 0 |
| U2C U9C U37C A59G | 1.76 |
| U57C C61U A91G | 1.54 |
| A33G U72C A89G | 0.19 |
| U2C U49C A52U A140G | 0.86 |
| A5G A91G U120C | 0.57 |
| A13U A90G U130C | 0.27 |
| A51G A68G U87C U127C | 0.38 |
| U9A U49G A52G | 0.97 |
| U39C A91G A92G | 0.54 |
| A62G U87C A90G | 0.4 |
| A5G A24U G44A A60G A82G | 0.78 |
| A60G U120C A140G | 1.1 |
| A47C G58U U102C U108G | 0.01 |
| U39C A52G A56U | 1.41 |
| A118G U132C A140G | 1.26 |
| U19C A22G A30G A89U A96G | 0.84 |
| A22G A94G U100C | 1.64 |
| U70A A110G A117G | 0.01 |

| Variant | self-cleavage |
| --- | --- |
| A33C U72C U131C | 0.25 |
| A55G A90G U120A | 0.84 |
| A67G A82G A86G U132C | 0.05 |
| A5G A24G G58A U70C A82G | 0.2 |
| A30G A62G A67G A68G | 0.36 |
| A55G A78G A125C | 0.06 |
| U39A A52G A90G | 0.87 |
| U19C A30G G41A | 1.22 |
| A52G A56G A78U A86G U120C | 0.11 |
| U37C A91U A114G | 0.15 |
| U49C A59G A62G A63G | 0.49 |
| U57G U100C U102C U124C | 1.42 |
| U38C U49C U122A A129U | 1.78 |
| U2C U38C A95G | 1.24 |
| A51G A69G G79A | 0.04 |
| A67G C77U A117G | 1.92 |
| U43A A91U A96G U97C A118U | 0.45 |
| G74A U102C A111G | 0.01 |
| A18U A92G A94G | 0.64 |
| U39A G75C U127C | 0.08 |
| U3C A22U U37C A67G | 1.39 |
| A94G A110C U122C U130C | 0.11 |
| A52G A69G U87C | 1.79 |
| G7A C40A U57C U131C A134G | 0.72 |

| Variant | self-cleavage |
| --- | --- |
| U26G A30U A59U U103C | 0.54 |
| A47U A52G U132C | 0.72 |
| G44A A117G A118G | 2.8 |
| U97C A110C A111U | 0 |
| U2C A18G A62G A68G A82U | 0.32 |
| A5G G106U U120C | 0.02 |
| G115A A118U U127A | 0.05 |
| A13U A36G A47G G74A | 0.31 |
| A22G A62G U70C U87C | 0.33 |
| U38C A51G A66U A135G | 1.83 |
| A11G G41U A63G | 1.48 |
| A30G G74U A89U U102G | 0.05 |
| A5G U39C A96G U103C A118G | 0.09 |
| U97C A135G G138U | 1.06 |
| G31A A63G A129U | 1.22 |
| U9C A22G U127C | 1.05 |
| U57C U70C U120C | 0.16 |
| A30G A92G U100C A116U | 0.83 |
| U19C A36G A47G A62G | 1.53 |
| A23C U57C A126G | 1.1 |
| A66G A68G U122C | 1.08 |
| A51G A63G A66U U120C A135G | 1.57 |
| A5U U102G A126G | 0.35 |
